Test results: patent US20180273573A1, “INHIBITORS OF MENAQUINONE BIOSYNTHESIS” (Memorial Sloan-Kettering Cancer Center, priority 2015, published 2018)

target: E. coli MenE (ecMenE) (Escherichia coli, UniProt P37353); assay: MenE-MenB coupled assay (enzyme inhibition, catalytic parameters); settings: up to a concentration of 100 μM
Sequence (P37353 whole entry): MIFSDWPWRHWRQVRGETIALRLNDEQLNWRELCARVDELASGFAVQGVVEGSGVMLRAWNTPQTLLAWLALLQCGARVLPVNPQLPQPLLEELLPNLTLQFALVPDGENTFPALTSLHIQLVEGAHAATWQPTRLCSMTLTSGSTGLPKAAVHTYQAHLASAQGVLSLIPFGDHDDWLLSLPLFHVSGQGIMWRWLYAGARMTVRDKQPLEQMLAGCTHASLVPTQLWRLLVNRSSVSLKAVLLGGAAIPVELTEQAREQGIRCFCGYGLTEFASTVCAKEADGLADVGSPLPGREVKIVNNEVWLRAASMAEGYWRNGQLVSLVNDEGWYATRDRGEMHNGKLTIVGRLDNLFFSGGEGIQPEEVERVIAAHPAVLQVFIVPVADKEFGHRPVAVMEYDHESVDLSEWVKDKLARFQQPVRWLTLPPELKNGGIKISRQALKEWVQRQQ

How did the “inhibition of ecMenE” value turn out when `Nc1ncnc2c1ncn2[C@@H]1O[C@H](COS(=O)(=O)NC(=O)CCC(=O)c2cccc(C(=O)O)c2)[C@@H](O)[C@H]1O` [Compound 102, 5′-O—(N-[4″-(3′″-(Carboxyl)phenyl)-4″-oxobutanoyl]sulfamoyl)adenosine] was run?
The value was “no inhibition”.

`Nc1ncnc2c1ncn2[C@@H]1O[C@H](COS(=O)(=O)NC(=O)CCC(=O)c2ccccc2[N+](=O)[O-])[C@@H](O)[C@H]1O` [Compound 103, 5′-O—(N-[4-(2-Nitrophenyl)-4-oxobutanoyl]sulfamoyl)adenosine] was tested. Which “inhibition of ecMenE” value did it give?
The value was “no inhibition”.

With `Nc1ncnc2c1ncn2[C@@H]1O[C@H](COS(=O)(=O)NC(=O)CCC(=O)c2ccccc2-c2cnco2)[C@@H](O)[C@H]1O` [Compound 104, 5′-O—(N-[4-(2-(5-Oxazolyl)phenyl)-4-oxobutanoyl]sulfamoyl)adenosine] as the compound, how does the “inhibition of ecMenE” value read?
The value was “no inhibition”.
